According to the RNAGym collection of RNA variant scans (doi:10.7554/elife.90254):
The source gives no read counts; variants with many changes may rest on few reads.

B1: LINE1-full (parent)
chain: UACGUAGGUGGUUUUCCCCUGAUAGUGCUAAGGGGGCCUGGAAGUUUGGACUGGGCAGAGCUCAACACAGCGUGGCAAAGUGGCUGUGGCUAGACUGCCUCUCUGGAUUCCUCGUCACUCAGCAGGGCAUCUCUGAGAGAAAUGCC

Variants of: B1
Experiment: self-cleavage, relative activity (ratio to wild type); higher = more cleavage; in vitro, sequencing; the parent is a self-cleaving ribozyme

Variant | self-cleavage
C76U U91C C103A A117G | 0.71
G75A G88A A124G G139A | 0.05
A77G U81A A124U | 1.11
U73C U119G A140G | 2.63
A77U A124G A129G | 1.32
A78U C101A A138G | 1.97
A77G A129U U134A U143C | 2.28
A78G A107G G114A | 0.29
A77G A117U A141G | 2.59
A77G U96A U104C A138U | 0.05
A77U U108A G127C | 1.27
U73G U87C G106U A142G | 0
A77U G114U U143C | 1.04
A79G A94U U102A | 0.4
A78U A94G A121G | 0.52
A77U U104C U130A | 1.81
A77C C128U A141G | 0.48
U73C U81C U115A | 1.15
A78G A92G U132C | 0
A78G A129U U132C A136G | 1.27
G75A U119C A136G A141G | 1.05
U73G A129G U143G | 2.43
G74U A136G A141G | 1.5
A77G U87A G122A A140G A141G | 0.11

Variant | self-cleavage
A77G A78G A136G | 2.76
A77U A94G U96A G125U U130C | 0
A78G A136G U143C | 1.47
G75A A77G U112A | 1.01
A77G U102C U112C A140G | 2.63
U73C U87A A121G U134A | 0.06
A77G A124U A129G | 0.88
A77G A79U U96A U119A A140G | 0.04
A77G U102C U134C | 2.69
A77G C84U G127U | 0.2
A78G U100C U143A | 0
U73G U132C A141G | 2.3
G75A A129U U134A U143C | 1.12
A77U A94G U130C | 0.07
A77U A129G A141G | 2.63
A77U A129G A141C | 1.72
A77G A92G C99U U112C | 0
A78G U109A A140G | 1.16
A78G C116U A142U | 0.72
A79G G83A A94U | 0.22
A77G U96A U104A | 0.12
G75A U104C A136U | 1.6
A78G C90G A117G | 0.18
A78G C111A A140G | 0.75

Variant | self-cleavage
A77G U108C U112C | 0
C76U U85C A141G | 0.27
A77G A78G C123U | 2.3
A78G G83A A140G | 0.9
U73C U81C U112A | 2.18
A77G U102C G114U | 2.84
A78G G83A U96C | 0.04
A79G A141U U143C | 1.77
A77U G127A A138U | 1.14
A77G A94G A129U | 0.22
A77G U109C U143C | 1.55
G75A U108C A136G | 1.22
A77G U81C U100C | 0.84
U73C U96C A117G | 0
A77G U104A U143G | 1.72
C76A G114U A142G | 1.64
A78G U87A A107U U108C | 0.04
A77G G127A A140G | 1.58
A78G G106U A107U | 0.84
A77U G80A U115C | 2.54
A78C A79G G114U | 1.91
G74A G106C U143C | 1.15
A77G U85C U132C | 0
A78G G97A A117C A129U | 0.76

Variant | self-cleavage
A78G A79G U87C G88A U112C U132C A136U | 0
A77U U102A A121G | 1.7
A77U U81C U109C | 2.3
C76U A79G A138G | 2.06
G74A A107G U112C | 1.99
C76U U109C A121G | 1.59
A77U A79G U112A | 1.62
A77U U96C A107U G127A | 0.07
A78G U96C C101A | 0.16
A78G U85C U96A U104C | 0.21
A78G U104C A140U | 3
A78G C90A A140G | 0
A77U A121G U130A U132A | 1.32
A77G A78G A121U | 1.15
A77U U119C A141G | 2.4
A78G U100A A121U | 0.16
U73C U119C A121U | 1.34
A79G C133A A136G | 1.25
C76A A79G A94U | 0.26
A77G U81C U87A A129G | 0
C76U A77U U112A | 2.14
A77G U112A G135A | 2.18
A78G U112C U130A | 1.75
A78G U81C U96A U100C | 0.26

Variant | self-cleavage
U73C U100G U115A | 1.08
U73C U81C U132C U143A | 2.3
A77G U112C G127A A129G | 2.56
G74U A129U A138G | 1.1
A79G G82A A138G | 1.78
A77G A92U U104C | 0.94
A77U A142G C146A | 1.05
A78G A138U A141G | 1.71
C76U U87A A124U G127U | 0.08
A78G G106U A136G | 1.02
U73G A121G G135U | 1.93
A77G A78U U109A A140G | 2.1
U73C U115C U143A | 0.71
C76G U104C A124G | 0.56
A77U U109C C128U | 1.34
A78G U96C U102C G105A A124G | 0
A77G A94G U104A | 0.35
U73C U109A A129G | 1.53
A78G G86A U87C | 0.17
G75A G114C U119C | 1.08
U73G A79G U96G | 0
A78G U108C U132C | 0.84
A77G U115G U119C | 1.31
U73C U87A A121G | 0.18

Variant | self-cleavage
A78U U104A A117G A138G | 1.89
G74A U81G U119C | 1.21
G74A U104A U143C | 1.07
G74A U91C U112C A141U | 0.31
A77U A78U C98A A138G | 0.27
A78G U112G U132C | 2.51
A79G A94G U134C | 0
U73C U85A C131U U134C A140U | 0.13
A79G A124G A138G | 0.57
U73G U119A U130A | 1.89
A77G U100A U134C | 1.48
U73C U87C G93A A142G | 0.1
A78G U96A U134C | 0.11
A77G U87C U134C | 0
G74A A78G A121U | 0.35
A78G U102C C116A | 0.75
A78G U87C A138G | 0.15
A78U U81A U130A | 2.88
A78U U91A U130C | 1.34
A77U U85C A107C A124G | 0
G74A A121G U134C | 1.15
C76U U96C U119C U134A | 0.13
U73G U104A U130C | 0.98
A77G G93U U102C | 0.06

Variant | self-cleavage
A78G U87A C98U A142G | 0.08
A77U U104G G106U | 1.04
C76U U85A U119C | 0.23
G75A A78G A107G U119C | 0.49
A77G A79U U112C | 2.06
A78G C113A A121G U143C G144A | 1.3
G75A A138G U143A | 1.47
A78G U119C U134A | 1.01
A77C U100C U119C | 0.92
A77G U108A A136G | 0.92
U73G U91C A142C | 0.72
A78G A107G A129G | 1.51
A78G U96C U134A | 0.06
A79G A129G A141G | 1.68
A77C U85C G106A | 0.17
A78G A94G C120U | 0.23
A79G C133A A142G | 0.65
A78C G83A U87A | 0.08
A78G U96C U130C | 0
G74A U109C U134A A140G | 0.15
U73C U102C U109C G114A | 1.62
G75A U96A A124G | 0.11
A77G A92G A117G | 0
